# The whole screen tested about 310,000 compounds, of which about 2,200 (0.71%) showed an effect of 50% or more. The effect is printed as a negative number. The list shows a part of the results.
# Target: human ether-à-go-go-related gene (hERG) potassium channel (human, UniProt Q12809)
# Assay: primary screen, population patch clamp on CHO cells stably expressing hERG
# Chain of human ether-à-go-go-related gene (hERG) potassium channel (Q12809 whole entry, looked up): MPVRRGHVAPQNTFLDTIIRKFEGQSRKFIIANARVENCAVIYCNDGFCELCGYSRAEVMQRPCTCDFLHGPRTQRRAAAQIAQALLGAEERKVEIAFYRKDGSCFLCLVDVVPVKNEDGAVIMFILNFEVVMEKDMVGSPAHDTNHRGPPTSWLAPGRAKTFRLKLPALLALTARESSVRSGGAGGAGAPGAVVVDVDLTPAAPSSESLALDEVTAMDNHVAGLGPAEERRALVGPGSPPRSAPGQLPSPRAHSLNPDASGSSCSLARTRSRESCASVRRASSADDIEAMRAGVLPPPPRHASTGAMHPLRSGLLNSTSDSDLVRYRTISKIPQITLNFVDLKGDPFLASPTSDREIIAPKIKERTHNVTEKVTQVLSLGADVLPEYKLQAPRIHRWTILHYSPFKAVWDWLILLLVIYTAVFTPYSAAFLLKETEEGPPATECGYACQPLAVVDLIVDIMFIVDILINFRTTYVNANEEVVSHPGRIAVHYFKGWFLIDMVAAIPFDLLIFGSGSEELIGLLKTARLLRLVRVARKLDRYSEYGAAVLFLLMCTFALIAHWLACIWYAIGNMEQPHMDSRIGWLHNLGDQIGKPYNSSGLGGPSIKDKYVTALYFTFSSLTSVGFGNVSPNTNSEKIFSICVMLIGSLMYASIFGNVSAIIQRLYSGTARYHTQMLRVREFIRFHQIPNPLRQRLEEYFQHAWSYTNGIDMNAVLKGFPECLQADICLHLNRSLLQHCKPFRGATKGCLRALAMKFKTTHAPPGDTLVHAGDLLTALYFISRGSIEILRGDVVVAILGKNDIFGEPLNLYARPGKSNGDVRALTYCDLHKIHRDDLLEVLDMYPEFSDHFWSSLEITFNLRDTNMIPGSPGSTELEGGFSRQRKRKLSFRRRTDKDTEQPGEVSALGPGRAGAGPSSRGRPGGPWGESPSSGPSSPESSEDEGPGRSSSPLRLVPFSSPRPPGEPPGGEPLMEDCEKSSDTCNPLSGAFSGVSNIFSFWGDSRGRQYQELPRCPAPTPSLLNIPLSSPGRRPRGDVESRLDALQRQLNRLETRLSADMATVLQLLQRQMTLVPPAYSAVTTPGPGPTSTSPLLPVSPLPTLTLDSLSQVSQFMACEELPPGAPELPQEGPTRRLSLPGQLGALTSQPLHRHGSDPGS
row,Compound,"hERG current change (%, negative = inhibition) at 1uM [%]"
1,COc1ccc(CCC(C)N(C)Cc2ccccc2)cc1 (stereo not drawn),-6.74
2,C/C(CC(=O)Nc1ccc(F)cc1)=N\NC(=O)c1ccccn1,4.39
3,O=Cc1c(Nc2ccccc2Cl)nc2ccccn2c1=O,12.4
4,Cc1ccc(S(=O)(=O)c2c(N)n(/N=C/c3ccco3)c3nc4ccccc4nc23)cc1,9.97
5,CCCC(=O)Nc1ccc(S(=O)(=O)N2CCC(c3nc4ccccc4[nH]3)CC2)cc1,-7.71
6,S=C(NCCCCNC(=S)NCc1ccccc1)NCc1ccccc1,6.63
7,CC(=O)Nc1ccc(S(=O)(=O)N(C)CC(=O)OCC(=O)N2CCCCCC2)cc1,11.3
8,C=CCNC(=S)N/N=C/c1ccc(OCc2ccccc2Cl)cc1,2
9,COC(=O)C(C(=O)Nc1ccccc1C)C1CCCCCC1 (stereo not drawn),9.43
10,Cc1ccc(N2CC(C(=O)Nc3ccc(S(=O)(=O)Nc4nccs4)cc3)CC2=O)cc1 (stereo not drawn),16.1
11,Cc1ccc(-n2c(-c3cnccn3)n[nH]c2=S)c(Br)c1,10.7
12,Cn1nnnc1SC1CC(=O)N(c2ccccc2)C1=O (stereo not drawn),0.721
13,CCOC(=O)c1cc(C(=O)OCC)c(=O)[nH]c1C,12.3
14,CCCCCNC(=O)c1cc(S(=O)(=O)N2CCCC2)ccc1F,5.33
15,CC1CCCCC12NC(=O)N(CC(=O)NCCc1ccc(S(N)(=O)=O)cc1)C2=O (stereo not drawn),8.41
16,Cc1csc(SCC(=O)NCCc2ccc(Cl)cc2)n1,2.21
17,Cc1cc(Cl)c(S(=O)(=O)Nc2cc(S(=O)(=O)N3CCOCC3)ccc2F)cc1OCC(N)=O,6.64
18,CC(C)Cn1c(-c2cc([N+](=O)[O-])ccc2Cl)nc2c1c(=O)[nH]c(=O)n2Cc1ccccc1,16.7
19,O=C(NN1C(=O)/C(=C/c2cc([N+](=O)[O-])ccc2O)SC1=S)c1ccccc1O,8.7

row,Compound,"hERG current change (%, negative = inhibition) at 1uM [%]"
1,O=C(Nc1ccc(N2CCN(C(=O)c3ccccc3)CC2)c(Cl)c1)c1cccnc1,8.16
2,CCc1c(C)nc(N2CCN(c3ccccc3)CC2)[nH]c1=O,13.7
3,C1CCCCCC(=NNc2nn[nH]n2)CCCCC1,12.4
4,O=C(/C=C/c1c(F)cccc1Cl)NCc1ccco1,5.05
5,COc1ccc(CNCC(O)(c2ccccc2)c2ccc(Cl)cc2)cc1 (stereo not drawn),-13.4
6,CCO[C@H]1OC(C(N)=O)=C[C@@H](C)[C@@H]1CCCO,11.8
7,CNC(=S)N(C)CCc1cc2c(c(OC)c1/C=C1/C(=O)NC(=O)N(C)C1=O)OCO2,14.2
8,CCOC(=O)c1sc2cccc(F)c2c1N,-14.6
9,COc1ccccc1NS(=O)(=O)c1ccc(NN=C2CCCCC2)c([N+](=O)[O-])c1,8.97
10,O=C(Nc1c(F)c(F)c(F)c(F)c1F)NC1CCCCC1,-0.0266
11,Cc1cc(C)nc(Nc2cccc3ccccc23)n1,13.1
12,Cn1c(COc2ccccc2)nnc1SCC(=O)c1cccc([N+](=O)[O-])c1,2.32
13,Cc1cccc(OCCCCCN2CCOCC2)c1C,11.4
14,CCC(NC(=O)CSc1nnnn1C1CC1)c1ccc(Br)cc1 (stereo not drawn),-1.62
15,Cc1cc2ccccn2c1C(=O)c1ccc(S(=O)(=O)N(C)C)cc1,8.68
16,O=C(NCc1ccc(F)cc1)c1cc2n(n1)C(C(F)(F)F)CC(C1CC1)N2 (stereo not drawn),14.3
17,CC(C)NS(=O)(=O)c1ccc(CCC(=O)NCc2ccc3c(c2)OCO3)cc1,6.97
18,O=C(Nc1nnc(-c2ccccc2Cl)o1)c1ccc(S(=O)(=O)N2CCCCCC2)cc1,9.58
19,CCOc1cc(/C=C\[N+](=O)[O-])ccc1OCC(=O)N1CCOCC1,-2.65

row,Compound,"hERG current change (%, negative = inhibition) at 1uM [%]"
1,CCN1CCN(c2cc(C)c3cc(NC(=O)c4ccncc4)ccc3n2)CC1,3.16
2,COc1ccccc1CNc1n[nH]c(NCc2ccccc2OC)n1,1.8
3,COc1cccc(-c2cc(C(=O)N3CCN(S(=O)(=O)c4ccccc4)CC3)[nH]n2)c1,-4.38
4,Cc1ccc(CNC(=O)COC(=O)c2cnccn2)cc1,-7.53
5,COc1ccccc1NC(=O)C1=C(C)Nc2nc3ccccc3n2C1c1cccs1 (stereo not drawn),-2.88
6,COc1ccc(-c2cc(C(F)(F)F)nc(SCCC(=O)NCc3ccccc3)n2)cc1,-4.05
7,CCOC(=O)N1CCC(N2C(=O)c3ccc(C(=O)NCCC(C)C)cc3C2=O)CC1,3.52
8,Cc1cc(-c2ccc(C(C)C)c(S(=O)(=O)Nc3ccccn3)c2)on1,25.3
9,CC1CN(CC(=O)NCc2ccc(F)cc2)CC(C)O1 (stereo not drawn),5.99
10,CN1CC(C(=O)c2ccccc2)C(c2ccccc2)C1 (stereo not drawn),8.3
11,S=C(NCCNC(=S)Nc1ccccc1Cl)Nc1ccccc1Cl,4.26
12,Cc1ccc(OCCCn2c(=O)sc3ccccc32)cc1,14.2
13,Cc1[nH]c(=O)c(C#N)c(C)c1CCC(=O)Nc1cc(S(C)(=O)=O)ccc1Cl,11.9
14,CC1(C)CC(NC(=O)COc2ccc(Cl)cc2Cl)CC(C)(C)N1,5.84
15,O=C(Nc1nc(-c2ccc(F)c(F)c2)cs1)c1cc([N+](=O)[O-])ccc1N1CCOCC1,15.1
16,CCn1c(Cc2cccs2)nnc1SCC(=O)NC1CC1,-1.4
17,O=C(Cn1c2c(sc1=O)C1c3ccccc3OCC1CS2)Nc1ccc(Cl)cc1 (stereo not drawn),9.64
18,O=C(Nc1cccc(Cl)c1)ON=C1c2ccccc2-c2ccccc21,-2.38
19,COc1ccccc1-c1noc2ncnc(Nc3ccccc3C)c12,-10.1
